Measurements published in the supplement of paper PMC3724861.
This is one part of the list.

Tested on: T1, Caupolican (Caup) homeodomain DNA-binding domain
T1 sequence: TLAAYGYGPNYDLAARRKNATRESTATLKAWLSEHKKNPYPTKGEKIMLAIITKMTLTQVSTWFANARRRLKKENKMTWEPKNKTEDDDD
Assay: PBM E-score (8-mer, recovered from the published 9-mer minima) (E-score (dimensionless, -0.5 to 0.5)); Drosophila protein; higher = stronger relative binding preference, active = 0.31 or more
Outline: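 An enrichment score, with higher meaning stronger, expresses relative binding preference for each short DNA word. The protein used was Caup's homeodomain DNA-binding domain (residues 214-303), produced by in vitro transcription and translation and tested at 100 nM on custom-designed protein binding microarrays. The 8-mer values were recovered from published 9-mer scores, each equal to the lower of its two constituent 8-mer scores.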

| Sequence | PBM E-score |
| --- | --- |
| GGCAAAAC | inactive: -0.0866 |
| CACGAAAC | inactive: 0.148 |
| CCGTGCCA | inactive: -0.183 |
| TAATGGGA | inactive: 0.0253 |
| ATATAAGC | inactive: 0.0632 |
| ACATGCTC | active: 0.334 |
| CCGACGCG | inactive: -0.167 |
| TCATCCGA | inactive: 0.0623 |
| ACGATATA | inactive: 0.128 |
| CACAGAAG | inactive: -0.0549 |
| CCTCCAAC | inactive: -0.102 |
| ATTATACA | inactive: 0.254 |
| CCGAACCG | inactive: -0.138 |
| AGCGACAT | active: 0.325 |
| AAAACGAT | inactive: 0.0884 |
| CAAGGAGA | inactive: -0.0609 |
| CTTAAGTC | inactive: -0.0706 |
| GAGGGACC | inactive: -0.261 |
| CAAATCGC | inactive: -0.0651 |
| CAACAGCG | inactive: -0.02 |
| CGGAGGAG | inactive: -0.115 |
| AACGCCCT | inactive: -0.11 |
| ACGCTCGG | inactive: -0.162 |
| GGGGCCAC | inactive: -0.333 |
| ATTCGAAA | inactive: 0.0724 |

| Sequence | PBM E-score |
| --- | --- |
| AGTTGGTC | inactive: -0.0686 |
| GGATGCAC | inactive: -0.106 |
| GCCGGCAC | inactive: -0.193 |
| AACTACGT | inactive: 0.151 |
| GTTAGCCA | inactive: -0.0805 |
| ACATATAA | active: 0.35 |
| ATGACAGA | inactive: 0.22 |
| ATTACAGG | inactive: 0.244 |
| AAGGGAAC | inactive: -0.0296 |
| ACGGCCGT | inactive: -0.12 |
| GGACCGAA | ≥ -0.0312 |
| ATCTAAGA | inactive: -0.00199 |
| ACGTAACA | inactive: 0.263 |
| CGCAATAA | inactive: -0.00715 |
| CATAACGA | inactive: 0.049 |
| TAGTGCAA | inactive: 0.0661 |
| CTTGCGGA | inactive: -0.0913 |
| ATGTGTGC | inactive: 0.0887 |
| ATATGGAA | inactive: 0.0946 |
| CGTCAAAA | inactive: 0.0589 |
| AGCGCTTG | inactive: -0.0194 |
| GTGGTAAC | inactive: 0.159 |
| ACCGGACG | inactive: -0.193 |
| AAGAATGC | inactive: 0.0231 |
| CGTATTGA | inactive: 0.141 |

| Sequence | PBM E-score |
| --- | --- |
| ACCCTCCG | inactive: -0.163 |
| CTGGTAGC | inactive: 0.0527 |
| CATAGTCG | inactive: 0.1 |
| CAAGGACA | inactive: 0.178 |
| AACAACAG | inactive: 0.243 |
| AATCGACG | inactive: 0.0185 |
| ACTATAAA | inactive: 0.142 |
| GGGCACTA | inactive: -0.0959 |
| ATATCTTG | inactive: 0.152 |
| GAATATAC | inactive: 0.0945 |
| CGATTGGA | inactive: -0.00693 |
| GTCGTCAA | inactive: 0.125 |
| AGTTCAGC | inactive: -0.0564 |
| ATGAAGTA | ≥ 0.0742 |
| TAAAAATA | inactive: 0.114 |
| CCTCACAA | inactive: -0.0288 |
| AATCTCGT | inactive: 0.121 |
| CTCAAAGA | inactive: -0.128 |
| ATATGCAT | inactive: 0.0964 |
| GTATAGTA | inactive: 0.161 |
| AGCACATG | inactive: 0.164 |
| CAGGTCCC | inactive: -0.178 |
| AGAGTGTC | inactive: 0.0704 |
| ACAGAAAG | inactive: 0.0934 |
| GAAATAAC | inactive: 0.1 |

| Sequence | PBM E-score |
| --- | --- |
| CACGAGTG | inactive: 0.00087 |
| AACAGTGC | inactive: 0.0664 |
| GAGACAAA | inactive: 0.0227 |
| CTTAATAA | inactive: 0.0195 |
| ACGGCTAA | inactive: 1e-05 |
| GCAGTCGA | inactive: -0.135 |
| CGCGCCCA | inactive: -0.12 |
| TATCAACA | inactive: 0.248 |
| GGCGGTGA | inactive: -0.117 |
| ACCTTTAC | inactive: 0.069 |
| GGATGACC | inactive: -0.12 |
| CCGTGCAA | inactive: -0.00032 |
| AGAGTAAG | inactive: -0.0115 |
| AGTGTCAC | inactive: 0.13 |
| AACACTAT | inactive: 0.174 |
| GACCAGCC | inactive: -0.111 |
| CTGTCGTC | inactive: 0.0801 |
| AGGGGTCG | inactive: -0.156 |
| CTGCTGAA | inactive: 0.0208 |
| ATGAAACA | inactive: 0.197 |
| TACAACTA | inactive: 0.239 |
| AGCAGCAC | inactive: -0.0836 |
| AGAAACCT | inactive: -0.00153 |
| ACACCGAA | inactive: 0.145 |
| GTCCGTCA | inactive: 0.0822 |

| Sequence | PBM E-score |
| --- | --- |
| AGCGTCTA | inactive: -0.0661 |
| GACCGAGC | inactive: -0.152 |
| ACTACTCT | inactive: 0.0627 |
| ACTGGACA | inactive: 0.159 |
| ACGTGACA | inactive: 0.265 |
| AATGTATA | inactive: 0.271 |
| GCATGGAA | inactive: -0.00398 |
| CAGCGTTC | inactive: -0.12 |
| AATAGGAC | inactive: 0.0898 |
| AATCGTAC | inactive: 0.0812 |
| ATAGTATA | inactive: 0.192 |
| GCAATAAC | inactive: 0.0387 |
| GACCGACA | inactive: 0.0747 |
| GCTTTATA | inactive: 0.0362 |
| GAATCGAA | ≥ 0.134 |
| ACTCAATA | inactive: 0.109 |
| CATGTACG | active: 0.409 |
| CTTCAAAA | inactive: 0.0461 |
| CAGTCAGC | inactive: -0.165 |
| AAAATGGA | ≥ 0.145 |
| ACACCTCG | inactive: 0.0742 |
| GAGGACGA | inactive: -0.00296 |
| CTCCCTGC | inactive: -0.235 |
| ATTGCACG | inactive: 0.114 |
| CTCTCTCC | inactive: -0.217 |

| Sequence | PBM E-score |
| --- | --- |
| CGGTCGAG | inactive: -0.229 |
| GTGCGAGA | inactive: -0.0224 |
| CGAAGAAC | inactive: 0.0582 |
| AGTCTCTA | inactive: 0.0146 |
| CCGGTAGC | inactive: -0.1 |
| CTCAGTTA | inactive: -0.0261 |
| GCAGGAAA | inactive: -0.0235 |
| TGATGAAA | inactive: 0.0756 |
| TCATTGGA | inactive: -0.0276 |
| CTCATTAA | inactive: 0.0612 |
| CCATTGCG | inactive: -0.158 |
| CCCTATGA | inactive: -0.191 |
| TGAGTACA | inactive: 0.265 |
| ATAAGCAA | inactive: 0.12 |
| ATGCGGTG | inactive: -0.0604 |
| GAACCATA | inactive: -0.0301 |
| CCTTGAAA | inactive: -0.00531 |
| TGAGACAA | inactive: 0.153 |
| AAGGCACT | inactive: -0.108 |
| CCTTAAAA | inactive: 0.0119 |
| ATCCATAG | inactive: 0.0531 |
| CCAGTATA | inactive: 0.0207 |
| ATCAAGCA | inactive: 0.0636 |
| CTGCGGTC | inactive: -0.18 |
| TATGACGA | inactive: 0.116 |

| Sequence | PBM E-score |
| --- | --- |
| AGTCTATG | inactive: -0.0427 |
| GCTCATAC | inactive: -0.0431 |
| ATGAAGAA | ≥ 0.1 |
| GAAAGCCC | inactive: -0.118 |
| AACGTGGT | inactive: 0.123 |
| GATCCACC | inactive: -0.118 |
| AGAGCCCA | inactive: -0.108 |
| GAATTCTC | inactive: 0.0234 |
| ATACTGGC | inactive: -0.0488 |
| CCGATTCC | inactive: -0.0905 |
| AGGTGCAG | inactive: -0.103 |
| CCATCGGG | inactive: -0.122 |
| AGTTGTGC | inactive: 0.0219 |
| GGCTGGTA | inactive: -0.0176 |
| ATTGTTAC | inactive: 0.307 |
| TAAGGAAA | inactive: 0.0604 |
| CGGTTCGA | inactive: -0.103 |
| AGAGCCGG | inactive: -0.203 |
| ATTATCTC | inactive: 0.0726 |
| CTGGCAAG | inactive: -0.0669 |
| CAGTAGAG | inactive: -0.0182 |
| AGCTTATG | inactive: 0.0779 |
| ACGTCTGC | inactive: -0.123 |
| ACAAGTTA | active: 0.325 |
| AAAAGACG | inactive: -0.0121 |

| Sequence | PBM E-score |
| --- | --- |
| ACGCCGAG | inactive: -0.176 |
| AGCTCGCG | inactive: -0.138 |
| CACGACCG | inactive: -0.0298 |
| AGGACGCG | inactive: -0.0824 |
| GGTGCAAC | inactive: -0.038 |
| GAGTCGGA | inactive: -0.0728 |
| CGTGGGTC | inactive: -0.137 |
| AGAGGGAC | inactive: -0.137 |
| ATGTTTCC | inactive: 0.236 |
| AAACTCAA | inactive: 0.0724 |
| CGAAGCGA | inactive: -0.135 |
| ACAGCAGT | inactive: 0.0288 |
| CGGGCGGC | inactive: -0.3 |
| GGCGCAAA | inactive: -0.126 |
| AGCCCAAA | ≥ -0.0354 |
| CCCGCCAA | inactive: -0.216 |
| GCCAGAGC | inactive: -0.225 |
| AACCCGAC | inactive: -0.0155 |
| CAATCTCC | inactive: -0.0317 |
| CCTGGTGA | inactive: -0.102 |
| AAGTGACT | inactive: 0.0564 |
| AAAGTGAA | inactive: 0.0917 |
| GAGTATAA | inactive: 0.0623 |
| TCCCTAAA | inactive: 0.014 |
| AGACGGAA | inactive: -0.024 |

| Sequence | PBM E-score |
| --- | --- |
| ACGAATTA | inactive: 0.0439 |
| AACGGTTG | inactive: 0.125 |
| ACTCCACA | inactive: 0.0339 |
| ATTCGGGC | inactive: -0.1 |
| CTACTCAC | inactive: 0.0344 |
| CGGATGGC | inactive: -0.0761 |
| GCGTTCGA | inactive: 0.00771 |
| ACATTTTA | inactive: 0.202 |
| CTAACTCA | inactive: -0.00933 |
| ATCGAACA | inactive: 0.212 |
| CTAGATTC | inactive: -0.0672 |
| CGTTTTAA | inactive: 0.0453 |
| ACCAAAGG | inactive: -0.0603 |
| CCCAATGC | inactive: -0.155 |
| CCCTGGTC | inactive: -0.167 |
| ACCTGAAT | inactive: 0.156 |
| GTAATTTA | inactive: 0.144 |
| GCGCGGAC | inactive: -0.0723 |
| AGAACTTA | inactive: 0.0726 |
| AAACTAGA | inactive: 0.134 |
| CTCTACTC | inactive: -0.0791 |
| GTTAGAGA | inactive: -0.0316 |
| AATTCCCA | ≥ 0.0659 |
| ACCTAGGG | inactive: -0.195 |
